Data reported in the supplement of paper PMC3334620.
Whole data set: some 33,000 sequences, median “E-score (-0.5 to 0.5)” near -0.032, cut for the highest 2% near 0.36. This is one part of the list.

Target: T1, Sko1 (UniProt Q02100)
T1 sequence: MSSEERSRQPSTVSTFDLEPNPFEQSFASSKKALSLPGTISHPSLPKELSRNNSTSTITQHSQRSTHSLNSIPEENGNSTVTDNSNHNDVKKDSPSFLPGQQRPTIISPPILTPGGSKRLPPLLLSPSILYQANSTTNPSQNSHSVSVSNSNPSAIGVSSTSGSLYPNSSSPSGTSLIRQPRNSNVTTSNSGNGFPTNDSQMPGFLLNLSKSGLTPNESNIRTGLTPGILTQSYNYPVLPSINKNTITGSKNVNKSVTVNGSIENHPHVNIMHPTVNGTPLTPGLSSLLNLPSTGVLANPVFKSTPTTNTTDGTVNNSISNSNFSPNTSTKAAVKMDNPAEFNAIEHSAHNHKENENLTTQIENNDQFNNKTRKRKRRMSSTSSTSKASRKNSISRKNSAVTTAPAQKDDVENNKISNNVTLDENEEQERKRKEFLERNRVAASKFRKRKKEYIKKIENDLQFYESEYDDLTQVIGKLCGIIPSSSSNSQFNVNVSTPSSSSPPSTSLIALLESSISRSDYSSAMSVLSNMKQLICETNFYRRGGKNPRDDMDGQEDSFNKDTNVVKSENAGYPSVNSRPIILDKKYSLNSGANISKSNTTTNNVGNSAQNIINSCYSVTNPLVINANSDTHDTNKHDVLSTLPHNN
Assay: PBM E-score (8-mer binding enrichment) (E-score (-0.5 to 0.5)); higher = stronger / more preferred TF binding; most listed sequences are background and not binding sites
Conditions: protein concentration: 200 nM; construct: GST-full length
How it was run: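 Each ungapped eight-base word and its reverse complement, pooled, received an E-score from the Universal PBM Analysis Suite. Underlying scans, normalised with masliner, recorded fluorescent anti-GST bound to GST-tagged yeast transcription factors. These were applied at about 100-200 nM to universal all-10-mer Agilent arrays double-stranded by primer extension.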

Sequence	PBM E-score
CTTGAAAG	-0.0877
CTATAGGC	-0.178
GCGCGAGC	-0.167
CCACCGAG	-0.351
ACTTGTAT	0.0674
GGGCAACC	-0.211
ACACTATG	0.00221
AGCTCAAG	-0.186
CCGCAAAC	-0.0896
TACCCAAA	-0.0306
GGGGTGAC	-0.0461
CTGAGTTC	-0.0185
CTCACTCC	-0.0365
GCACGCGA	0.114
CTAAGTCC	-0.254
CCCTGGAA	-0.367
AGCACGGA	-0.221
CGTTGTCC	0.187
ACACACCC	-0.0953
TGGATAAA	0.00546
ACGTATCC	0.389
CCCGGGAC	-0.359
TCACAAAA	0.156
CTTGTGTC	-0.0889
TCCATAGA	-0.173

Sequence	PBM E-score
GTACACTA	0.0293
CCTGCCGA	-0.329
CTATGGCC	-0.29
CCCGAGGC	-0.315
ATGCCAAG	-0.0588
CCAACTCG	0.076
ACGGGTTA	-0.137
TAGTGTGA	0.116
AGTCGCGA	0.0367
AGCTATCC	-0.323
CTACACGC	-0.00687
ACAAATGG	0.0773
CTGTACTA	0.111
AAGTTACA	-0.0102
CACATGGC	0.0845
GATTAAAA	0.202
AGAAGACC	-0.096
AGGTTCAT	-0.265
CGTAACTC	0.331
CCGCGTGC	-0.0654
CATACCAC	0.0883
AACATTCA	-0.148
GGCGGCCC	-0.352
CCATTAGG	-0.161
GTCGTTGA	0.158

Sequence	PBM E-score
CGAACGAG	-0.0222
CGAGAGAG	-0.198
AATACGAC	0.22
AGCGGCTC	-0.202
AATCTGGA	-0.0269
CCGGATAC	-0.0842
AATACATC	0.249
GGCCATAA	-0.168
ACTTACTA	0.0335
ATACCCCA	-0.0418
CTTTCTAA	0.149
AAATCCCT	-0.139
ACCCCACC	0.132
CAAGATCA	-0.117
AGGATCAA	-0.0197
ATAATCTG	0.0638
CGACTCAG	-0.199
GCAAGGTA	0.0147
CCTATGAA	-0.0551
GGATACAA	-0.0221
CAGCCCCA	-0.217
AGACATTA	-0.0173
GAGTCTCA	-0.343
TGGGGACA	-0.0788
CAAAGGCG	-0.0438

Sequence	PBM E-score
ATTGTGAA	0.085
CGGACCGA	-0.16
CCTTAAAC	-0.105
ACCTCGAG	0.0402
ACCTCACA	-0.0109
CACCGCGG	-0.204
CATTATTA	0.136
AAGTAGGG	-0.0549
CAACCTAC	-0.0224
AACTGGGC	-0.351
AGGGCCGG	-0.274
AACTTTTC	0.115
GGGACGCA	0.0981
AACATCCC	-0.232
CAGTATTA	0.146
ACGAGAAT	0.143
CGCACTAG	-0.0989
CTATCCCC	-0.337
AATTGACC	-0.0283
CAGGACGA	-0.116
AGGTTCCC	-0.237
CGCTCTAG	-0.348
AAACTGCA	-0.203
ACCGGAAG	0.00439
AGAGCTAT	-0.0901

Sequence	PBM E-score
GTCTACAC	-0.0279
CCTACTGC	-0.144
CATCCCTA	-0.124
AACTAACA	0.124
GTCAGTAA	0.207
AATATCCG	0.0774
AGTAACCA	0.0123
AACCACTC	-0.126
AAGCATCT	-0.118
CGAGCGAC	-0.026
CCCTATCA	-0.257
ACAATTGT	-0.0275
ACCTATGA	0.183
CCCCTCAA	-0.133
GGGCTTAC	-0.129
AAGGTGTG	-0.121
CTACGTCC	0.298
GTACCCCA	-0.19
ACAGGGCT	-0.13
ACATTACC	0.146
ATTTAAGA	0.0259
ACGTAGCC	0.388
ATTAGCCA	-0.0892
GTCTATCA	0.0459
CCGGGGAC	-0.315

Sequence	PBM E-score
ACATGATA	0.208
ACCTCGAA	-0.0344
ACAGGAAA	0.0847
GCTGTTCA	-0.00445
ACAGAATA	0.182
GAATACAC	0.1
TAGGACAA	0.0529
GCAAGTGA	0.0674
AGGTTACA	-0.00703
CCCGTGGC	-0.396
AATCCAAA	0.0986
GCCACCTA	-0.0329
CATGGGCA	-0.229
GTGCAGCA	-0.167
AATTCACG	0.095
CCAAGTGC	-0.285
GACCCGGA	-0.245
GACATGGC	-0.103
CATACCCG	-0.0961
ACACGCCC	-0.102
GGAATCAA	-0.0965
GAGTACAA	0.0814
ATAGTGAA	0.0345
CGGACAAC	-0.0111
CCCGAGCA	-0.19

Sequence	PBM E-score
AATAATGT	0.08
CACATGAC	0.257
CGAACGGA	-0.0822
ACAAACAT	0.0999
AAAAGCTG	-0.0655
CCAGAGTC	-0.108
GTAACGCA	0.217
ATGTCTTA	0.245
CCAGCTAA	-0.162
ACACGGGT	-0.189
ATTCAGTA	0.196
ACCTACAC	-0.0871
GACCGGCA	-0.313
GTGATGAA	0.111
TCCCAAGA	-0.166
GTAATGCA	0.286
AGCGGTGC	-0.249
GATATTAC	0.34
CGCGTTTC	-0.131
CATGCAGA	-0.0258
AATCGTAT	0.265
AGCGGCAC	-0.207
